Laboratory results from EPA's CvTdb concentration-time database.
The source gives many values for each of these; only a part stands here.

Assays:
Assay in all cases: concentration in plasma after dosing
Rat [1] = conditions: dosed: 2-Hydroxy-4-methoxybenzophenone, 250 mg/kg, oral, Male, F344
Mouse [2] = conditions: 1.5 h; dosed: 2-Hydroxy-4-methoxybenzophenone; 50 mg/kg; iv; Female; B6C3F1
Mouse [3] = conditions: 10 h; dosed: 2-Hydroxy-4-methoxybenzophenone; 500 mg/kg; oral; Male; B6C3F1
Mouse [4] = conditions: 5 min; dosed: 2-Hydroxy-4-methoxybenzophenone; 250 mg/kg; oral; Female; B6C3F1
Mouse [5] = conditions: 1 h; dosed: 2-Hydroxy-4-methoxybenzophenone; 500 mg/kg; oral; Female; B6C3F1
Mouse [6] = conditions: 2.5 min; dosed: 2-Hydroxy-4-methoxybenzophenone; 500 mg/kg; oral; Male; B6C3F1
Mouse [7] = conditions: 1 h; dosed: 2-Hydroxy-4-methoxybenzophenone; 250 mg/kg; oral; Female; B6C3F1
Mouse [8] = conditions: 0.5 h; dosed: 2-Hydroxy-4-methoxybenzophenone; 500 mg/kg; oral; Female; B6C3F1
Rat [9] = conditions: dosed: 2-Hydroxy-4-methoxybenzophenone, 250 mg/kg, oral, Female, F344
Mouse [10] = conditions: 8 h; dosed: 2-Hydroxy-4-methoxybenzophenone; 50 mg/kg; iv; Female; B6C3F1
Mouse [11] = conditions: 16 h; dosed: 2-Hydroxy-4-methoxybenzophenone; 50 mg/kg; iv; Female; B6C3F1
Mouse [12] = conditions: 7 h; dosed: 2-Hydroxy-4-methoxybenzophenone; 250 mg/kg; oral; Male; B6C3F1
Mouse [13] = conditions: 4 h; dosed: 2-Hydroxy-4-methoxybenzophenone; 250 mg/kg; oral; Male; B6C3F1
Mouse [14] = conditions: 6 h; dosed: 2-Hydroxy-4-methoxybenzophenone; 250 mg/kg; oral; Male; B6C3F1
Rat [15] = conditions: dosed: 2-Hydroxy-4-methoxybenzophenone, 500 mg/kg, oral, Female, F344
Mouse [16] = conditions: 1 h; dosed: 2-Hydroxy-4-methoxybenzophenone; 50 mg/kg; iv; Male; B6C3F1
Rat [17] = conditions: 2.5 min; dosed: 2-Hydroxy-4-methoxybenzophenone; 100 mg/kg; oral; Male; F344
Mouse [18] = conditions: 0.5 h; dosed: 2-Hydroxy-4-methoxybenzophenone; 50 mg/kg; iv; Male; B6C3F1
Rat [19] = conditions: dosed: 2-Hydroxy-4-methoxybenzophenone, 8 mg/kg, iv, Female, F344
Rat [20] = conditions: dosed: 2-Hydroxy-4-methoxybenzophenone, 8 mg/kg, iv, Male, F344
Mouse [21] = conditions: 10 h; dosed: 2-Hydroxy-4-methoxybenzophenone; 500 mg/kg; oral; Female; B6C3F1
Mouse [22] = conditions: 5 min; dosed: 2-Hydroxy-4-methoxybenzophenone; 250 mg/kg; oral; Male; B6C3F1
Mouse [23] = conditions: 12 h; dosed: 2-Hydroxy-4-methoxybenzophenone; 50 mg/kg; iv; Female; B6C3F1
Mouse [24] = conditions: 16 h; dosed: 2-Hydroxy-4-methoxybenzophenone; 500 mg/kg; oral; Female; B6C3F1
Mouse [25] = conditions: 5 min; dosed: 2-Hydroxy-4-methoxybenzophenone; 250 mg/kg; oral; Female; B6C3F1; remark: listed apart in the source
Mouse [26] = conditions: 4 h; dosed: 2-Hydroxy-4-methoxybenzophenone; 50 mg/kg; iv; Female; B6C3F1
Rat [27] = conditions: dosed: 2-Hydroxy-4-methoxybenzophenone, 100 mg/kg, oral, Female, F344
Mouse [28] = conditions: 1 h; dosed: 2-Hydroxy-4-methoxybenzophenone; 50 mg/kg; iv; Female; B6C3F1
Mouse [29] = conditions: 5 min; dosed: 2-Hydroxy-4-methoxybenzophenone; 500 mg/kg; oral; Male; B6C3F1
Rat [30] = conditions: dosed: 2-Hydroxy-4-methoxybenzophenone, 8 mg/kg, iv, Male, F344; remark: listed apart in the source
Rat [31] = conditions: 6 h; dosed: Perfluorohexanoic Acid; 80 mg/kg; oral; Male; Harlan Sprague Dawley
Rat [32] = conditions: 1 h; dosed: Perfluorohexanoic Acid; 80 mg/kg; oral; Female; Harlan Sprague Dawley
Rat [33] = conditions: dosed: Perfluorohexanoic Acid, 80 mg/kg, oral, Female, Harlan Sprague Dawley
Rat [34] = conditions: dosed: Perfluorohexanoic Acid, 40 mg/kg, Male, F344
Rat [35] = conditions: 6 h; dosed: Perfluorohexanoic Acid; 80 mg/kg; oral; Female; Harlan Sprague Dawley
Rat [36] = conditions: 1 h; dosed: Perfluorohexanoic Acid; 40 mg/kg; Female; Harlan Sprague Dawley

O=C(c1ccccc1)c1ccc(O)cc1O [2,4-Dihydroxybenzophenone]
concentration in plasma [ng/mL]
Conditions	0.5 h	1 h	6 h	10 h
Rat [1]	–	231	97.9	–
Rat [9]	393	–	–	83

Conditions	concentration in plasma [ng/mL]
Mouse [2]	96
Mouse [3]	208
Mouse [4]	944
Mouse [5]	267
Mouse [6]	237
Mouse [7]	248
Mouse [8]	1830
Mouse [10]	35.6
Mouse [11]	30.5
Mouse [12]	138
Mouse [13]	269

COc1ccc(C(=O)c2ccccc2)c(O)c1 [2-Hydroxy-4-methoxybenzophenone]
Conditions	concentration in plasma [ng/mL]
Mouse [14]	32.8
Mouse [16]	1030
Mouse [18]	2570
Mouse [21]	48.3
Mouse [22]	35.9
Mouse [23]	129000
Mouse [24]	53.2
Mouse [25]	20.6
Mouse [26]	115
Mouse [28]	1130
Mouse [29]	45.9
Rat [17]	1.56

Conditions	concentration in plasma [ng/mL]
Rat [15], 0.5 h	413
Rat [15], 12 h	22.4
Rat [19], 0.5 h	598
Rat [19], 6 h	15.2
Rat [20], 1.5 h	123
Rat [20], 12 h	10.8
Rat [27], 1 h	70.1
Rat [27], 6 h	4.5
Rat [30], 4 h	56.2
Rat [30], 5 min	8660

O=C(O)C(F)(F)C(F)(F)C(F)(F)C(F)(F)C(F)(F)F [Perfluorohexanoic Acid]
Conditions	concentration in plasma [ng/mL]
Rat [31]	27500
Rat [32]	71400
Rat [35]	6200
Rat [36]	25500

concentration in plasma [ng/mL]
Conditions	3 h	5 min	9 h
Rat [33]	–	61500	711
Rat [34]	736	253000	–
